Test results as given in US20210024610A1 (Hoffmann-La Roche, published 2021).
Like-named read-outs stand apart in the source and are kept apart here.

Assays:
Test in all cases: cell-based or functional assay
[1] = biological target: T1, human 4-1BB expressed on cells (Jurkat-hu4-1BB-NFκB-luc2 reporter cells; human T cells in PBMC) (human, UniProt Q07011 24-255)
[2] = biological target: T1, human 4-1BB expressed on cells …; design: unit not given beside the values
[3] = biological target: T1, human 4-1BB expressed on cells …; remark: listed apart in the source
[4] = biological target: T1, human 4-1BB expressed on cells …; remark: listed apart in the source

Sequence of UniProt Q07011 (Q07011 24-255): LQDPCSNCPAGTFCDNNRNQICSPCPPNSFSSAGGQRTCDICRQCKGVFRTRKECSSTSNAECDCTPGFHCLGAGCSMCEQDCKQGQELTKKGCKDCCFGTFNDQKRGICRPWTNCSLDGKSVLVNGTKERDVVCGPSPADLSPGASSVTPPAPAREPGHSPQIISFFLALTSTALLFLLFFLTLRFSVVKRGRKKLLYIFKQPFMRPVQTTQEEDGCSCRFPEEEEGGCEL

EC50 of NFκB-activation-induced Luciferase activity, Jurkat-hu4-1BB-NFκB-luc2 reporter cells, with NCI-N87 cells [1]: 0.03 nM
EC50 of NFκB-activation-induced Luciferase activity, Jurkat-hu4-1BB-NFκB-luc2 reporter cells, with SK-Br3 cells [1]: 0.02 nM
AUC above background, PBMC activation assay, % CD25+ CD4 [2]: 81
AUC above background, PBMC activation assay, % CD25+ CD8 [2]: 10
AUC above background, PBMC activation assay, % GnzB high CD4 [2]: 55
AUC above background, PBMC activation assay, % GnzB high CD8 [2]: 122
AUC above background, PBMC activation assay, % proliferating CD4 [2]: 25
AUC above background, PBMC activation assay, % proliferating CD8 [2]: 38
EC50 PBMC activation assay, % CD25+ CD4, with NCI-N87 cells [3]: 0.02 nM
EC50 PBMC activation assay, % GnzB high CD4, with NCI-N87 cells [3]: 0.01 nM
EC50 PBMC activation assay, % GnzB high CD8, with NCI-N87 cells [3]: 0.02 nM
EC50 PBMC activation assay, % proliferating CD4, with NCI-N87 cells [3]: 0.02 nM
EC50 PBMC activation assay, % proliferating CD8, with NCI-N87 cells [3]: 0.01 nM
EC50 of NFκB-activation-induced Luciferase activity, Jurkat-hu4-1BB-NFκB-luc2 reporter cells, with KPL-4 cells [4]: 0.01 nM
EC50 of NFκB-activation-induced Luciferase activity, Jurkat-hu4-1BB-NFκB-luc2 reporter cells, with NCI-N87 cells [4]: 0.02 nM
EC50 of NFκB-activation-induced Luciferase activity, Jurkat-hu4-1BB-NFκB-luc2 reporter cells, with SK-Br3 cells [4]: 0.01 nM
B1: Her2(PER)-4-1BBL (monovalent anti-Her2(PER) split trimeric 4-1BB ligand Fc (kih) fusion antigen binding molecule containing CH1-CL crossover and charged … (Fc fusion)
heavy: EVQLVESGGGLVQPGGSLRLSCAASGFTFTDYTMDWVRQAPGKGLEWVADVNPNSGGSIYNQRFKGRFTLSVDRSKNTLYLQMNSLRAEDTAVYYCARNLGPSFYFDYWGQGTLVTVSSASTKGPSVFPLAPSSKSTSGGTAALGCLVKDYFPEPVTVSWNSGALTSGVHTFPAVLQSSGLYSLSSVVTVPSSSLGTQTYICNVNHKPSNTKVDKKVEPKSCDKTHTCPPCPAPEAAGGPSVFLFPPKPKDTLMISRTPEVTCVVVDVSHEDPEVKFNWYVDGVEVHNAKTKPREEQYNSTYRVVSVLTVLHQDWLNGKEYKCKVSNKALGAPIEKTISKAKGQPREPQVCTLPPSRDELTKNQVSLSCAVKGFYPSDIAVEWESNGQPENNYKTTPPVLDSDGSFFLVSKLTVDKSRWQQGNVFSCSVMHEALHNHYTQKSLSLSP
light: DIQMTQSPSSLSASVGDRVTITCKASQDVSIGVAWYQQKPGKAPKLLIYSASYRYTGVPSRFSGSGSGTDFTLTISSLQPEDFATYYCQQYYIYPYTFGQGTKVEIKRTVAAPSVFIFPPSDEQLKSGTASVVCLLNNFYPREAKVQWKVDNALQSGNSQESVTEQDSKDSTYSLSSTLTLSKADYEKHKVYACEVTHQGLSSPVTKSFNRGEC
chain 1: REGPELSPDDPAGLLDLRQGMFAQLVAQNVLLIDGPLSWYSDPGLAGVSLTGGLSYKEDTKELVVAKAGVYYVFFQLELRRVVAGEGSGSVSLALHLQPLRSAAGAAALALTVDLPPASSEARNSAFGFQGRLLHLSAGQRLGVHLHTEARARHAWQLTQGATVLGLFRVTPEIPAGLGGGGSGGGGSREGPELSPDDPAGLLDLRQGMFAQLVAQNVLLIDGPLSWYSDPGLAGVSLTGGLSYKEDTKELVVAKAGVYYVFFQLELRRVVAGEGSGSVSLALHLQPLRSAAGAAALALTVDLPPASSEARNSAFGFQGRLLHLSAGQRLGVHLHTEARARHAWQLTQGATVLGLFRVTPEIPAGLGGGGSGGGGSRTVAAPSVFIFPPSDRKLKSGTASVVCLLNNFYPREAKVQWKVDNALQSGNSQESVTEQDSKDSTYSLSSTLTLSKADYEKHKVYACEVTHQGLSSPVTKSFNRGE[here human IgG1 Fc with changes without letters]
chain 2: REGPELSPDDPAGLLDLRQGMFAQLVAQNVLLIDGPLSWYSDPGLAGVSLTGGLSYKEDTKELVVAKAGVYYVFFQLELRRVVAGEGSGSVSLALHLQPLRSAAGAAALALTVDLPPASSEARNSAFGFQGRLLHLSAGQRLGVHLHTEARARHAWQLTQGATVLGLFRVTPEIPAGLGGGGSGGGGSASTKGPSVFPLAPSSKSTSGGTAALGCLVEDYFPEPVTVSWNSGALTSGVHTFPAVLQSSGLYSLSSVVTVPSSSLGTQTYICNVNHKPSNTKVDEKVEPKSC
